Laboratory results as given in PubChem BioAssay AID686979 (National Center for Advancing Translational Sciences (NCATS), 2013).
The campaign covered roughly 420,000 compounds. About 50,000 (12%) were called active. The shares of active, inactive and inconclusive entries below differ from those in the screen. Calls come from the whole dose curve; as a rule, active = well fitted inhibition curve with a large enough effect; inconclusive = small, poorly fitted or top-dose-only effect; inactive = flat fitted curve, though single readings scatter. Potencies of inconclusive entries are left out as doubtful fits.
% is set by controls: 0 for no effect and ±100 for the full control effect; potency is the fitted concentration of half-maximal effect; tags give direction and shape of the fitted curve.

Assay: qHTS for Inhibitors of human tyrosyl-DNA phosphodiesterase 1 (TDP1): qHTS in cells in presence of CPT; note: nearly all actives have a fitted effect of over 55% in size
Conditions: chicken DT40 Tdp1-/-;hTDP1 cells + 20 nM CPT, ATP luminescence, 48 h; activity change, negative = growth inhibition: at 46.2 µM (top of the series) unless noted
Summary of the method: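 Chicken DT40 Tdp1-/- cells stably complemented with human TDP1 were seeded at 400 cells/well in medium containing 20 nM camptothecin, exposed to pin-transferred compounds, and grown at 37 °C for at least 48 hr. Viability was read as ATP luminescence.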
For Cc1ccsc1C(=O)Nc1ccccc1N1CCCC1, the Potency was inconclusive [inhibitor, single point]. With Cc1ccc(S(=O)(=O)N2CCN(C(=S)NCc3ccc4c(c3)OCO4)CC2)cc1 the Potency was inconclusive [inhibitor, single point]. In the case of CC(C)N(c1ccccc1)c1ccc(NC(=O)C2CCCO2)cc1 (stereo not given), the Potency is reported as inconclusive [inhibitor, single point]. In the case of Cc1ccc(S(=O)(=O)N(C)CC(=O)Oc2ccc(-c3nnco3)cc2)cc1, the “activity change, negative = growth inhibition” value is reported as inactive: -2.58%. For O=C(Cc1ccc(Cl)cc1)N/N=C/c1ccccc1, the “activity change, negative = growth inhibition” value was inactive: -8.96%. With O=C(c1sc2cc(F)ccc2c1Cl)N1CCN(c2cccc(Cl)c2)CC1 the Potency was inconclusive [inhibitor, partial curve]. In the case of Cc1sc2nc(C(C)C)nc(SCC(=O)N3CCOCC3)c2c1C, the “activity change, negative = growth inhibition” value is reported as inactive: -27.1%. For Cc1cc(C)c2[nH]c(C(=O)Nc3ccc4c(c3)OCO4)cc2c1, the Potency was inconclusive [inhibitor, single point]. With Cc1cc(N)ccc1NC(=O)CN1CCOCC1 the “activity change, negative = growth inhibition” value was inactive: 3.36%. For CCOC(=O)c1c(NC(=O)C2C3C=CC(C3)C2(C)C(=O)O)sc2c1CCCC2 (stereo not given), the Potency was active: 13 µM. With CCOC(=O)c1cc(S(=O)(=O)N2CCN(c3cccc(OC)c3)CC2)[nH]n1 the Potency was inconclusive [inhibitor, single point]. For COCCNc1ncnc2c1cnn2Cc1ccc(Cl)cc1, the Potency was inconclusive [inhibitor, single point]. In the case of COc1ccc(C(=O)Nc2cc(C(F)(F)F)ccc2Cl)cc1OC, the Potency is reported as inconclusive [inhibitor, full curve]. With Cc1nn(-c2ccccc2)c(C)c1/C=N/NC(=O)CSc1nc2ccccc2c(=O)n1-c1ccc(Br)cc1 the Potency was inconclusive [inhibitor, single point]. In the case of CC(C)C[C@@H](CNCC(=O)[C@H](CC(=O)O)NC(=O)c1[nH]cnc1C(=O)N[C@H](CN)CC(C)C)NC(=O)c1nc[nH]c1C(=O)N[C@@H](Cc1ccccc1)C(=O)O, the “activity change, negative = growth inhibition” value is reported as inactive: -1.66%. With CCOCCCNC(=O)c1ccc2c(=O)n(Cc3ccc(OC)cc3)c(=O)[nH]c2c1 the Potency was inconclusive [inhibitor, single point]. For Cc1ccc(C2Nc3ccccc3C(=O)N2CCCN2CCOCC2)cc1 (stereo not given), the “activity change, negative = growth inhibition” value was inactive: -2.26%. In the case of C/C(=N\O)c1ccn(S(=O)(=O)c2ccc(Cl)cc2)c1, the Potency is reported as inconclusive [inhibitor, single point]. For O=C(NCC1CCCO1)c1ccc(CSCc2cccc(F)c2)o1 (stereo not given), the “activity change, negative = growth inhibition” value was inactive: -21.5%. With COc1ccccc1OCCn1cc(/C=N/NC(N)=S)c2ccccc21 the Potency was inconclusive [inhibitor, single point]. In the case of O=C(COc1ccc(Cl)cc1)Nc1ccc2c(c1)CCC2, the Potency is reported as inconclusive [inhibitor, single point]. With COC(=O)c1ccc(CN2CCCC(C(=O)Nc3cccc(-n4cnnn4)c3)C2)cc1 (stereo not given) the Potency was inconclusive [inhibitor, single point]. For Cc1nnc(-c2cccc(Br)c2)c2cn(-c3cccc(Br)c3)nc12, the Potency was inconclusive [inhibitor, single point]. In the case of CCOc1ccc(-c2noc([C@@H]3O[C@H](CO)[C@@H](O)[C@H]3O)n2)cc1, the Potency is reported as inconclusive [inhibitor, partial curve]. In the case of Cc1nc(-c2cccc(NC(=O)COc3ccc(Cl)cc3)c2)cs1, the Potency is reported as inconclusive [inhibitor, single point]. For COc1ccc(-c2nnc(C3CCN(S(=O)(=O)c4ccccc4)CC3)o2)cc1, the Potency was inconclusive [inhibitor, single point]. In the case of CC1(C)CC(=O)C(C=NCc2ccccn2)=C(O)C1, the “activity change, negative = growth inhibition” value is reported as inactive: -1.44%. With Cc1ccc(OCC(=O)NNC(=S)NC(=O)C(C)(C)C)c(Br)c1 the Potency was inconclusive [inhibitor, single point]. For Cc1cccc(NC(=S)NNC(=O)Cc2ccccc2)c1, the “activity change, negative = growth inhibition” value was inactive: 1.66%. For O=C(NCCC1CCCCN1S(=O)(=O)c1ccc(Cl)cc1)C(=O)NCc1ccco1 (stereo not given), the Potency was active: 16.4 µM. In the case of O=C(COC(=O)c1ccc2ccccc2c1O)Nc1ccccc1, the “activity change, negative = growth inhibition” value is reported as inactive: -1.82%. For O=c1oc2ccccc2cc1-c1csc(Cc2nc(-c3ccc(Cl)cc3)cs2)n1, the Potency was inconclusive [inhibitor, partial curve]. With CCOC(=O)c1cnn(-c2nc(-c3ccccc3)cs2)c1C(F)(F)F the Potency was inconclusive [inhibitor, single point]. For CC(=O)Nc1ccc(S(=O)(=O)NCC2CCC(C(=O)N3CCCCCC3)CC2)cc1 (stereo not given), the Potency was inconclusive [inhibitor, single point]. For CC(C)c1ccc(CNNC(=O)c2ccccc2)cc1, the Potency was inconclusive [inhibitor, partial curve]. In the case of COC(=O)c1c(-c2ccc(Cl)cc2)noc1N1CCN(c2cccc(C)c2C)CC1, the Potency is reported as active: 16.4 µM. In the case of COCCNC(=S)NN=C1CCCCC1, the Potency is reported as active: 5.17 µM. In the case of CCCc1cc(CN(C)C(=O)c2ccc(OC3CCN(C(C)=O)CC3)c(OC)c2)[nH]n1, the “activity change, negative = growth inhibition” value is reported as inactive: -15%. In the case of O=C(Nc1nccs1)c1cccc(NC(=O)C2CC2)c1, the Potency is reported as inconclusive [inhibitor, single point]. In the case of Cn1c(=O)c2c(ncn2CC(=O)OCC(=O)c2ccc(OC(F)F)cc2OC(F)F)n(C)c1=O, the “activity change, negative = growth inhibition” value is reported as inactive: -26%. With COC(=O)c1ccccc1NC(=O)NCCc1ccc(OC)c(OC)c1 the “activity change, negative = growth inhibition” value was inactive: -10.1%. In the case of CCCN(CC1CC1)C(=O)CCc1nnc(CCc2c[nH]c3ccccc23)o1, the Potency is reported as inconclusive [inhibitor, single point]. In the case of COc1ccc(-n2c(O)c(C=Nc3ccccc3)c3ccccc3c2=O)cc1OC, the Potency is reported as inconclusive [inhibitor, single point]. With CCCc1cc(=O)[nH]c(SCC(=O)N2N=C(c3ccc(Cl)cc3)CC2c2ccco2)n1 (stereo not given) the Potency was inconclusive [inhibitor, single point]. With CCc1nc(SCC(=O)Nc2ccc3c(c2)OCCO3)c2oc3ccccc3c2n1 the Potency was inconclusive [inhibitor, single point].
